Test results from the BET-seq Pho4 binding data (Le et al. 2018).
The list shows a part of the results. The energies were worked out here from pooled read counts, against the library average; single values are noisy.

The sequences below were run against T1, Pho4 (S. cerevisiae) (UniProt P07270) (assay: relative binding free energy (BET-seq); higher = weaker binding). Settings: reference: library average.
T1 sequence: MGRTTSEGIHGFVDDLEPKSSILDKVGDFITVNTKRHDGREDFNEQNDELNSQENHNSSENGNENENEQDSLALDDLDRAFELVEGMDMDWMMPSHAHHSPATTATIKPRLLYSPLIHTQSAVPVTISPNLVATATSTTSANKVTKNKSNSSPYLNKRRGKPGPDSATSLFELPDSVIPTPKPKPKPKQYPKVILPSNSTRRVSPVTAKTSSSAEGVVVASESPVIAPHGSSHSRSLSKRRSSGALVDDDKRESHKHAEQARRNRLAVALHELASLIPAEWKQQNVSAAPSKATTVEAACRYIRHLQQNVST

Row | Sequence | relative binding free energy [kcal/mol]
1 | TGGTCCACGTGGTGTG | -0.08
2 | GGGGACACGTGGCGTG | -0.02
3 | AGAGTCACGTGGCGGG | -0.02
4 | TCGTTCACGTGTAATT | 0.44
5 | TTAGCCACGTGAAGTG | 0.12
6 | TGGGACACGTGTTGCA | -0.03
7 | AATGTCACGTGCGGCG | -0.04
8 | TGCGGCACGTGCGATG | 0.01
9 | GGGGACACGTGCTATT | -0.01
10 | AATTTCACGTGAATCG | 0.47
11 | GTCAGCACGTGGCAGG | -0.1
12 | TGTTGCACGTGGGGGG | -0.08
13 | CGTATCACGTGGGCGT | 0.12
14 | GTTTGCACGTGTCAGA | 0.06
15 | AGTTTCACGTGTTTAA | 0.22
16 | AGGGGCACGTGCAAGA | -0.15
17 | TTAGCCACGTGGGTGA | -0.2
18 | AGAGACACGTGTTGTA | 0.06
19 | AGGTACACGTGGTGAA | -0.04
20 | AATATCACGTGTAGGT | 0.07
21 | TGTTGCACGTGTAGGA | 0.07
22 | GTGTACACGTGACAGT | 0.22
23 | GGTTGCACGTGAGATA | 0.36
24 | TACTGCACGTGGTGTA | -0.18
25 | GAACGCACGTGGGGCG | -0.15

Row | Sequence | relative binding free energy [kcal/mol]
26 | TTAGTCACGTGAGACT | 0.32
27 | TATTCCACGTGTGTGT | -0.05
28 | TGGGTCACGTGCACGT | 0.04
29 | ATAGTCACGTGGCGTG | -0.01
30 | TAAGGCACGTGTCGTT | -0.23
31 | CGGGCCACGTGTGTTG | -0.17
32 | GAGTGCACGTGTGGTC | 0
33 | AGGGCCACGTGGCTTG | -0.12
34 | GTGAGCACGTGTGCTT | -0.18
35 | CCAGGCACGTGGGTTT | -0.16
36 | GTTAACACGTGGTGAA | -0.08
37 | GATGACACGTGACGGG | 0.14
38 | AGATCCACGTGTGTGT | -0.09
39 | GTTACCACGTGTTGTG | 0
40 | GGCTTCACGTGTGTAT | 0.4
41 | TGGTACACGTGGGGTG | -0.14
42 | AGGTGCACGTGGCAGG | -0.11
43 | TGGTGCACGTGCTACG | 0.03
44 | TTAGTCACGTGGCGGT | -0.03
45 | GGATGCACGTGTGTAC | 0
46 | ATTTGCACGTGAATCG | 0.25
47 | TGCATCACGTGGTTAT | 0.1
48 | CATGTCACGTGCGGGT | 0.16
49 | AGATACACGTGGATGT | 0.12
50 | GGGGGCACGTGAAGAA | 0.21

Row | Sequence | relative binding free energy [kcal/mol]
51 | TGTAGCACGTGTCTCG | -0.01
52 | TTTGGCACGTGAGGAC | 0.13
53 | TGTTGCACGTGTAATT | 0.1
54 | GGGGTCACGTGATCAT | 0.21
55 | CGTATCACGTGTCGGT | 0.22
56 | TATGACACGTGAGAGG | 0.22
57 | TGGTACACGTGGGCCG | -0.15
58 | GTGGACACGTGAAAAG | 0.44
59 | AAATACACGTGTTGGG | 0.1
60 | ACGTGCACGTGTGGTA | -0.11
61 | GTTATCACGTGAGACG | 0.37
62 | TTGTACACGTGTCGGA | 0.12
63 | CGGCGCACGTGTGGTA | -0.13
64 | TTATGCACGTGAAGTC | 0.24
65 | AGGGTCACGTGTAGAA | 0.29
66 | TTGTTCACGTGGTTTT | 0.3
67 | TTCGTCACGTGAATAG | 0.28
68 | TATGTCACGTGGATGT | 0.21
69 | TTTTACACGTGGTTTT | 0.12
70 | GAGTCCACGTGTGCGG | 0.11
71 | GGTTTCACGTGTTGAT | 0.38
72 | TTGATCACGTGTTTAA | -0.01
73 | GATCTCACGTGGGGGG | 0.27
74 | GTGAACACGTGGGGAG | -0.13
75 | AACGTCACGTGGTTTA | 0.2

Row | Sequence | relative binding free energy [kcal/mol]
76 | AGGAACACGTGAGCGG | 0.22
77 | TTATGCACGTGTGTTG | -0.02
78 | CAATTCACGTGAGTTT | 0.45
79 | GGAGGCACGTGCAGGC | -0.02
80 | TTTCACACGTGGTCGG | 0.15
81 | CCTTTCACGTGGTGTT | 0.25
82 | TGGGCCACGTGGGTTC | -0.17
83 | GTCTTCACGTGGGTGT | 0.08
84 | GATAACACGTGTGTTG | 0.05
85 | TCTGACACGTGTGAGG | 0.06
86 | GTCGACACGTGAAGGG | 0.39
87 | TGGTGCACGTGATTTA | 0.04
88 | GGTGGCACGTGAATCT | 0.32
89 | TGATGCACGTGATGAT | 0.17
90 | GGATCCACGTGTATTT | 0.3
91 | GGTGGCACGTGTGATA | 0.06
92 | TCGGGCACGTGAGGTG | 0.17
93 | GTATACACGTGGGTCA | -0.09
94 | GCTTGCACGTGGATGG | 0.04
95 | CGTGGCACGTGTGAGC | -0.08
96 | TTAATCACGTGAGATT | 0.32
97 | ACGTGCACGTGGGCGG | -0.15
98 | TGAGACACGTGTAGGC | 0.04
99 | TTGGGCACGTGCAAAT | -0.07
100 | GGGGGCACGTGCTACA | -0.05

Row | Sequence | relative binding free energy [kcal/mol]
101 | TGACGCACGTGATGTA | 0.15
102 | GGGAACACGTGGGTTC | 0.03
103 | GGAGCCACGTGCAGGT | 0.08
104 | TTGTTCACGTGACTTG | 0.36
105 | TGGTCCACGTGAAGGG | 0.2
106 | TTATGCACGTGGACAG | -0.13
107 | TCAGTCACGTGATTGG | 0.19
108 | GTGTCCACGTGGTATA | 0.12
109 | CGAGGCACGTGTTGTG | -0.11
110 | AGTCACACGTGGTCGT | 0.09
111 | ATGGTCACGTGGAGCA | 0.07
112 | GTGAGCACGTGTTGTA | -0.21
113 | TACAGCACGTGATGTT | 0.18
114 | TGAATCACGTGGGATA | 0.15
115 | CGGGGCACGTGGGTGA | -0.24
116 | ACTTGCACGTGGGTTA | -0.1
117 | GATATCACGTGGGGGG | 0.08
118 | TCAGTCACGTGAAGGT | 0.31
119 | TCTGTCACGTGTCTGA | 0.27
120 | AGTGGCACGTGCGTAA | -0.19
121 | CTTTTCACGTGATGCT | 0.28
122 | TTTGTCACGTGGATAG | 0.09
123 | TGTCACACGTGGTTGA | 0.08
124 | ATCGTCACGTGGTAGA | 0.12
125 | TAGGTCACGTGGGGAT | 0

Row | Sequence | relative binding free energy [kcal/mol]
126 | GGGTACACGTGTTAGA | 0.08
127 | AGATACACGTGGGCTT | -0.01
128 | GGTTTCACGTGGATAA | 0.2
129 | GTATGCACGTGGTAGG | -0.01
130 | TGTTGCACGTGGAAAC | 0.2
131 | TGCTGCACGTGTGGAA | -0.03
132 | TGGGCCACGTGAGCTG | 0.11
133 | TTATGCACGTGAAAGG | 0.22
134 | TATTTCACGTGAGGAA | 0.25
135 | CCGGCCACGTGGTGGG | -0.06
136 | AATATCACGTGTTTTC | 0.17
137 | TGAGTCACGTGTTAGA | 0.04
138 | TTTTGCACGTGCTGGC | 0.08
139 | GTAAGCACGTGTGGGC | -0.08
140 | TTTATCACGTGAGATT | 0.37
141 | TGGGTCACGTGTTGGA | 0.21
142 | TTGAACACGTGGAGTT | 0.04
143 | TTGGACACGTGGGCGC | -0.12
144 | CGTTACACGTGTGTTG | 0.07
145 | TGGGGCACGTGCTACG | -0.28
146 | TGTGACACGTGCTTGG | -0.11
